Data as given in patent publication US20250163166A1 (REGENECORE BIOTECH, published 2025).

B1: bispecific antibody BM#16 against CD33 and CD123 (bispecific antibody, human IgG1)
chain 1: QVQLVESGGGSVQAGGSLRLSCAASGYTYSSTCIGWFRQAPGKDREGVAFAYTGGGVTYADSVKGRFTISQDNAKNTVHLIMNSLKPEDTAMYYCAAKTRGGCWAAAAFYNYWGQGTQVTVSS[human IgG1 Fc with T366W K370Y (EU numbers) left out here]
chain 2: QVQLVESGGGSVQAGGSLKLSCAASRFIFSRCGMGWFRQAPGKERELVSTISGDGTTFYADSVKGRFTISQHNAATTLYLQMNSLKLEDTAVYYCAADCYNRKYWGQGTQVTVSS[human IgG1 Fc with E357D T366S L368A Y407V (EU numbers) left out here]
notes: VHH-Fc heterodimer
B2: bispecific antibody BM#17 against CD33 and CD123 (bispecific antibody, human IgG1)
chain 1: QVQLVESGGGSVQAGGSLRLSCAASGYTYSSTCIGWFRQAPGKDREGVAFAYTGGGVTYADSVKGRFTISQDNAKNTVHLIMNSLKPEDTAMYYCAAKTRGGCWAAAAFYNYWGQGTQVTVSS[human IgG1 Fc with K360D T366W (EU numbers) left out here]
chain 2: QVQLVESGGGSVQAGGSLKLSCAASRFIFSRCGMGWFRQAPGKERELVSTISGDGTTFYADSVKGRFTISQHNAATTLYLQMNSLKLEDTAVYYCAADCYNRKYWGQGTQVTVSS[human IgG1 Fc with Q347R T366S L368A Y407V (EU numbers) left out here]
notes: VHH-Fc heterodimer; also called BM-RT2831-#17
B3: bispecific antibody BM#18 against CD33 and CD123 (bispecific antibody, human IgG1)
chain 1: QVQLVESGGGSVQAGGSLRLSCAASGYTYSSTCIGWFRQAPGKDREGVAFAYTGGGVTYADSVKGRFTISQDNAKNTVHLIMNSLKPEDTAMYYCAAKTRGGCWAAAAFYNYWGQGTQVTVSS[human IgG1 Fc with T366V K439E (EU numbers) left out here]
chain 2: QVQLVESGGGSVQAGGSLKLSCAASRFIFSRCGMGWFRQAPGKERELVSTISGDGTTFYADSVKGRFTISQHNAATTLYLQMNSLKLEDTAVYYCAADCYNRKYWGQGTQVTVSS[human IgG1 Fc with D356K Y407A (EU numbers) left out here]
notes: VHH-Fc heterodimer; also called BM-RT2831-#18
B4: bispecific antibody BM#19 against CD33 and CD123 (bispecific antibody, human IgG1)
chain 1: QVQLVESGGGSVQAGGSLRLSCAASGYTYSSTCIGWFRQAPGKDREGVAFAYTGGGVTYADSVKGRFTISQDNAKNTVHLIMNSLKPEDTAMYYCAAKTRGGCWAAAAFYNYWGQGTQVTVSS[human IgG1 Fc with K370Y Y407A (EU numbers) left out here]
chain 2: QVQLVESGGGSVQAGGSLKLSCAASRFIFSRCGMGWFRQAPGKERELVSTISGDGTTFYADSVKGRFTISQHNAATTLYLQMNSLKLEDTAVYYCAADCYNRKYWGQGTQVTVSS[human IgG1 Fc with E357D T366V (EU numbers) left out here]
notes: VHH-Fc heterodimer; also called BM-RT2831-#19
B5: bispecific antibody BM#20 against CD33 and CD123 (bispecific antibody, human IgG1)
chain 1: QVQLVESGGGSVQAGGSLRLSCAASGYTYSSTCIGWFRQAPGKDREGVAFAYTGGGVTYADSVKGRFTISQDNAKNTVHLIMNSLKPEDTAMYYCAAKTRGGCWAAAAFYNYWGQGTQVTVSS[human IgG1 Fc with K360D T366V (EU numbers) left out here]
chain 2: QVQLVESGGGSVQAGGSLKLSCAASRFIFSRCGMGWFRQAPGKERELVSTISGDGTTFYADSVKGRFTISQHNAATTLYLQMNSLKLEDTAVYYCAADCYNRKYWGQGTQVTVSS[human IgG1 Fc with Q347R Y407A (EU numbers) left out here]
notes: VHH-Fc heterodimer; also called BM-RT2831-#20
B6: bispecific antibody BM#25 against CD33 and CD123 (bispecific antibody, human IgG1)
chain 1: QVQLVESGGGSVQAGGSLRLSCAASGYTYSSTCIGWFRQAPGKDREGVAFAYTGGGVTYADSVKGRFTISQDNAKNTVHLIMNSLKPEDTAMYYCAAKTRGGCWAAAAFYNYWGQGTQVTVSS[human IgG1 Fc with E357D D399K (EU numbers) left out here]
chain 2: QVQLVESGGGSVQAGGSLKLSCAASRFIFSRCGMGWFRQAPGKERELVSTISGDGTTFYADSVKGRFTISQHNAATTLYLQMNSLKLEDTAVYYCAADCYNRKYWGQGTQVTVSS[human IgG1 Fc with K370Y K409D (EU numbers) left out here]
notes: VHH-Fc heterodimer; also called BM-RT2831-#25
B7: bispecific antibody BM#34 against CD33 and CD123 (bispecific antibody, human IgG1)
chain 1: QVQLVESGGGSVQAGGSLRLSCAASGYTYSSTCIGWFRQAPGKDREGVAFAYTGGGVTYADSVKGRFTISQDNAKNTVHLIMNSLKPEDTAMYYCAAKTRGGCWAAAAFYNYWGQGTQVTVSS[human IgG1 Fc with D356V (EU numbers) left out here]
chain 2: QVQLVESGGGSVQAGGSLKLSCAASRFIFSRCGMGWFRQAPGKERELVSTISGDGTTFYADSVKGRFTISQHNAATTLYLQMNSLKLEDTAVYYCAADCYNRKYWGQGTQVTVSS[human IgG1 Fc with K439W (EU numbers) left out here]
notes: VHH-Fc heterodimer; also called BM-RT2831-#34
B8: bispecific antibody BM#35 against CD33 and CD123 (bispecific antibody, human IgG1)
chain 1: QVQLVESGGGSVQAGGSLRLSCAASGYTYSSTCIGWFRQAPGKDREGVAFAYTGGGVTYADSVKGRFTISQDNAKNTVHLIMNSLKPEDTAMYYCAAKTRGGCWAAAAFYNYWGQGTQVTVSS[human IgG1 Fc with E357V (EU numbers) left out here]
chain 2: QVQLVESGGGSVQAGGSLKLSCAASRFIFSRCGMGWFRQAPGKERELVSTISGDGTTFYADSVKGRFTISQHNAATTLYLQMNSLKLEDTAVYYCAADCYNRKYWGQGTQVTVSS[human IgG1 Fc with K370W (EU numbers) left out here]
notes: VHH-Fc heterodimer; also called BM-RT2831-#35
B9: bispecific antibody BM#37 against CD33 and CD123 (bispecific antibody, human IgG1)
chain 1: QVQLVESGGGSVQAGGSLRLSCAASGYTYSSTCIGWFRQAPGKDREGVAFAYTGGGVTYADSVKGRFTISQDNAKNTVHLIMNSLKPEDTAMYYCAAKTRGGCWAAAAFYNYWGQGTQVTVSS[human IgG1 Fc with Q347M (EU numbers) left out here]
chain 2: QVQLVESGGGSVQAGGSLKLSCAASRFIFSRCGMGWFRQAPGKERELVSTISGDGTTFYADSVKGRFTISQHNAATTLYLQMNSLKLEDTAVYYCAADCYNRKYWGQGTQVTVSS[human IgG1 Fc with K360W (EU numbers) left out here]
notes: VHH-Fc heterodimer; also called BM-RT2831-#37

Experiments:
[1] = molecular target: T1, human FCγRIIIa receptor (human, UniProt P08637 fragment, limits assumed); test: BLI; Ratio against the hIgG (hIgG1) control, fits KD(hIgG)/KD(sample)
T1 construct: Used in solution as the 'antigen' in BLI; also called FcγIIIa receptor
Protocol: (§1) (3) Preparation of antigen working solution: 200 nM antigen (FCγRIIIa) in SD buffer was first prepared at and then serially diluted in 2 folds to prepare a total of 5 concentration gradients, in addition to which a zero concentration was prepared.
(§2) (11) Data analysis: related constants, such as KD, Kon, Koff, X2, Full R2 and the like were calculated in Data Analysis software.
(§3) In the examples of the present application, the modified bispecific antibody was subjected to BLI test to determine the affinity of the modified bispecific antibody to human FCγRIIIa.

[2] = molecular target: T1, human FCγRIIIa receptor; test: BLI (Octet 96), antibody loaded on sensor, FCγRIIIa 200 nM and 2-fold dilutions in solution
T1 sequence (P08637 17-208 limits assumed): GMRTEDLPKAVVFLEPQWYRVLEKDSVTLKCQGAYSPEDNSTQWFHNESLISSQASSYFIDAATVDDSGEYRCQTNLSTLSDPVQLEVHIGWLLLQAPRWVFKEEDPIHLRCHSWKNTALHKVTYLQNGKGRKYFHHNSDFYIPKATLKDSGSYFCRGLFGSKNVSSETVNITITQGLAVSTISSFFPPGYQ
Protocol: as §1, §2, §3

Binder | Ratio [1] | Kd [2] [nM]
B1 | 1.49 | 59.4
B2 | 1.42 | 62.6
B3 | 1.27 | 69.8
B4 | 1.1 | 80.8
B5 | 1.39 | 63.9
B6 | 1.08 | 81.8
B7 | 1.13 | 78.5
B8 | 1.36 | 64.9
B9 | 1.21 | 73.4
